{"source": "PubChem BioAssay AID903", "about": "(National Center for Advancing Translational Sciences (NCATS), 2007)", "note": "Out of some 55,000 compounds screened, about 340 (0.62%) were called active. Inconclusive means that the source gave no clear call. Such entries were picked first, then a sample of the others. Calls come from the whole dose curve; as a rule, active = well fitted cell-killing curve with a large enough effect; inconclusive = small, poorly fitted or top-dose-only effect; inactive = no such curve, though single readings can be large or run the other way. Potencies beside an inconclusive call are fits to weak or partial responses and may not hold up. Potency is the fitted concentration of half-maximal effect; tags give direction and shape of the fitted curve."}
{"experiment": "qHTS Screen for Compounds that Selectively Target Cancer Cells with p53 Mutations: Cytotoxicity of p53 Null Cells at the Permissive Temperature; note: nearly all actives have a fitted effect of over 55% in size;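 for activity change, negative = cytotoxicity: 0% = DMSO only and -100% = full killing by 100 µM tamoxifen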", "settings": "H1299-neo p53 null cells, ATP luminescence, 24 h, 32C; series mostly up to 46.1 µM; activity change, negative = cytotoxicity: at the top concentration", "excerpt": "NIH Chemical Genomics Center [NCGC] NIH Molecular Libraries Screening Centers Network [MLSCN] MLSCN Grant: 1 X01 MH079844-01 Assay Submitter (PI): Dr. SUN, YI, University of Michigan NCGC Assay Overview: Synthetic Lethal Screen for Compounds to Kill Cancer Cells with p53 Mutation. Tumor suppressor gene p53 serves as a major cellular barrier against tumorigenesis. […] The goal of this screening is to identify small molecule probes that selectively kill cancer cells with mutations in p53. This screening was carried out using two lines of H1299 lung cancer cells. The H1299-p53 A138V line express a temperature sensitive p53 mutant (p53ts) in which the mutant p53 protein (A138V) is in the mutant confirmation when grown at 39C (the nonpermissive temperature) and in the wild type conformation when grown at 32C (the permissive temperature). A H1299-neo line (p53 null) grown at both 39C and 32C were used as counter-screens to filter out false positive associated with temperature shifting. The small molecular compounds that selectively target mutant p53-containing cancer cells were selected as candidate probes for further study. A cytotoxicity assay based on the measurement of ATP contents in cells was used in this screen. Concentration-responses of all the compounds in the library collection were determined in qHTS using the cell lines and temperature conditions as above.\nNCGC Assay Protocol Summary: Both the H1299-p53A138V and H1299-neo cell lines were provided by Dr.Yi Sun, a PI at the University Michigan. The cells were maintained and cultured at 37C. The resuspended frozen cells were used to plate the cells in the 1536-well assay plates at a density of 600 cells per well in 5 ul medium. The assay plates with the cells were incubated at 37C for 16 to 30 hours before the experiments. The library compounds in DMSO solution were added to the cells in assay plates and incubated 24 hours at 39C (for mutant p53 conformation) or 32C (for normal p53 conformation as control). An ATP_lite assay kit (PerkinElmer) was used to determine the cell viability. Tomaxifen (100uM) was used as the positive control for cell killing. Data were normalized to the controls for basal activity (DMSO only) and 100% killing (100uM tamoxifen). AC50 values were determined from concentration-response data modeled with the standard Hill equation. P53 assay protocol: 1. Reagent; 5 uL H1299-p53A138V or H1299-neo cell cells/well 2. Time; overnight; 37C incubation 3. Compounds; 23 nL; 5.9 nM to 46 uM 4. Controls; 23 nL; Tamoxifen 100 uM 5. Time; 24 hr; 32C incubation 6. Reagent; 3 uL; ATP_Lite reagent 7. Time; 20 min; Room Temperature 8. Detection; Luminescence; Viewlux plate reader Keywords: p53, synthetic lethal, cancer, cell viability, cytotoxicity, H1299 cell line, luminescence, MLSMR, MLSCN, NIH Roadmap, qHTS, NCGC"}
{"smiles": "Cc1ccc(S(=O)(=O)CCC(=O)N2CCN(c3nc4c(C)c(Cl)ccc4s3)CC2)cc1", "activity change, negative = cytotoxicity": "inactive: -3.98%"}
{"smiles": "COc1cccc(C(=O)NNC(=O)Cc2ccc([N+](=O)[O-])cc2)c1", "Potency": "inconclusive: 1.12 µM [cytotoxic, partial curve]"}
{"smiles": "Cc1cccc(N/C=C/C(=O)c2cccs2)c1C", "Potency": "active: 14.1 µM"}
{"smiles": "Cc1ccc(Cl)cc1N1CCN(CCNC(=O)Nc2ccc(Cl)cc2)CC1", "Potency": "inconclusive: 31.6 µM [cytotoxic, single point]"}
{"smiles": "Cn1c(Oc2ccc(F)cc2)nc2c1c(=O)n(Cc1ccccc1Cl)c(=O)n2C", "Potency": "inconclusive: 31.6 µM [cytotoxic, single point]"}
{"smiles": "CC(C)(C)C(=O)N1CCN(c2nc3c(F)cccc3s2)CC1", "Potency": "inconclusive: 12.6 µM [cytotoxic, partial curve]"}
{"smiles": "COc1ccc(-n2c(=O)c3ccc(C(=O)NCc4ccc(C)cc4)cc3n(CC(=O)Nc3ccc(C)cc3)c2=O)cc1", "Potency": "inconclusive: 25.1 µM [cytotoxic, single point]"}
{"smiles": "CSc1cccc(NC(=O)Cn2nnc(C(=O)NCCc3ccccc3)c2N)c1", "Potency": "inconclusive: 5.01 µM [cytotoxic, partial curve]"}
{"smiles": "Cc1nc2ccccc2n1CCc1nc2c3ccccc3nc(SCC(=O)Nc3ccc(C(C)C)cc3)n2n1", "Potency": "inconclusive: 31.6 µM [cytotoxic, single point]"}
{"smiles": "Clc1ccc(CSc2nc3ncccc3[nH]2)cc1", "Potency": "active: 10 µM"}
{"smiles": "COc1ccc(S(=O)(=O)Cc2ccc(C(=O)NC3CCCCC3)o2)cc1", "activity change, negative = cytotoxicity": "inactive: 8.42%"}
{"smiles": "Cc1cc(C)cc(N2CCn3c2nc2c3c(=O)n(CCc3ccccc3)c(=O)n2C)c1", "Potency": "inconclusive: 2 µM [cytotoxic, full curve, poor fit]"}
{"smiles": "COC(=O)C(C)n1nnc2sc(-c3ccccc3)cc2c1=O", "note": "(stereo not given)", "Potency": "inconclusive: 12.6 µM [cytotoxic, partial curve]"}
{"smiles": "Cc1c(-c2nsc(NC(=O)c3cccc(Cl)c3)n2)nnn1-c1ccccc1C(F)(F)F", "Potency": "inconclusive: 31.6 µM [cytotoxic, single point]"}
{"smiles": "O=C(C1=NN[C@@H]2C(=O)N(c3cccc(C(F)(F)F)c3)C(=O)[C@H]12)C(c1ccccc1)c1ccccc1", "Potency": "inconclusive: 12.6 µM [cytotoxic, partial curve]"}
{"smiles": "CCOc1ccc(CNS(=O)(=O)c2ccc(-c3coc(C)n3)cc2)cc1", "Potency": "inconclusive: 3.98 µM [cytotoxic, single point]"}
{"smiles": "CCC(C)NC(=O)c1cccc(NC(=O)c2nsc3ccccc23)c1", "note": "(stereo not given)", "Potency": "inconclusive: 12.6 µM [cytotoxic, partial curve]"}
{"smiles": "CCCCN1C(C(=O)c2ccccc2)=C(OC(C)=O)c2ccccc2S1(=O)=O", "Potency": "inconclusive: 12.6 µM [cytotoxic, partial curve]"}
{"smiles": "COc1ccc(OC)c2sc(N3CCN(C(=O)C(C)(C)C)CC3)nc12", "Potency": "active: 12.6 µM"}
{"smiles": "O=C(NCCc1ccccc1Cl)c1ccc(Cn2c(=O)c3cccn3c3cccnc32)cc1", "Potency": "inconclusive: 12.6 µM [cytotoxic, single point]"}
{"smiles": "Cc1ccc(C)c(N2CCN(C(=O)C3CCCN(S(=O)(=O)c4ccc5c(c4)oc(=O)n5C)C3)CC2)c1", "note": "(stereo not given)", "Potency": "inconclusive: 35.5 µM [cytotoxic, single point]"}
{"smiles": "CCN(CC)CCNC(=O)c1ccc(Cn2c(SCc3ccccc3)nc3cccnc32)cc1", "Potency": "inconclusive: 10 µM [cytotoxic, partial curve]"}
{"smiles": "Fc1ccc(-c2noc3ncnc(NCCc4ccccc4)c23)cc1", "activity change, negative = cytotoxicity": "inactive: -15.4%"}
{"smiles": "Cc1c(CCNC(=O)c2ccc(Br)o2)sc2nc(-c3ccc(F)cc3)nn12", "Potency": "inconclusive: 12.6 µM [cytotoxic, partial curve]"}
{"smiles": "CC(=O)c1cccc(NC(=O)c2noc3c2CCCC3)c1", "Potency": "inconclusive: 35.5 µM [cytotoxic, single point]"}
{"smiles": "CCOc1cccc2c1OC(c1cc(OC)c(OC)c(OC)c1)N1N=C(c3ccc(C)o3)CC21", "note": "(stereo not given)", "Potency": "inconclusive: 3.16 µM [cytotoxic, full curve]"}
{"smiles": "CC(C)(C)OC(=O)N1CCC(c2c(C(=O)NCCN3CCC(Cc4ccccc4)CC3)cnn2-c2ccc(F)cc2)CC1", "Potency": "inconclusive: 35.5 µM [cytotoxic, single point]"}
{"smiles": "COc1ccc(CNC(=O)c2ccc(CS(=O)(=O)c3ccccc3OC)o2)cc1", "activity change, negative = cytotoxicity": "inactive: 5.83%"}
{"smiles": "CCN(CC)S(=O)(=O)c1ccc2c(c1)N(CC(=O)N1CCN(c3ccc(F)cc3)CC1)C(=O)CO2", "activity change, negative = cytotoxicity": "inactive: 13.5%"}
{"smiles": "CCc1ccccc1NC(=O)CSc1ncc2c(n1)-c1ccccc1N(C)S2(=O)=O", "Potency": "inconclusive: 12.6 µM [cytotoxic, partial curve]"}
{"smiles": "Cc1csc2nc(-c3cccc(NC(=O)c4ccc(S(N)(=O)=O)cc4)c3)cn12", "Potency": "inconclusive: 7.08 µM [cytotoxic, partial curve]"}
{"smiles": "CCOC(=O)c1cccc(NS(=O)(=O)c2cc(Br)cc3c2N(C(=O)C2CC2)CC3)c1", "activity change, negative = cytotoxicity": "inactive: 15.2%"}
{"smiles": "CCN(CC)c1ccc(NC(=O)CN2C(=O)c3cccnc3Oc3ccccc32)c(C)c1", "activity change, negative = cytotoxicity": "inactive: -6.52%"}
{"smiles": "COc1cccc(CNC(=O)Cn2c(=O)n3nc(-c4cccc(C)c4)nc3c3ccccc32)c1", "activity change, negative = cytotoxicity": "inactive: -4.54%"}
{"smiles": "CC(=O)Nc1ccc(NC(=O)c2ncoc2-c2ccco2)cc1", "Potency": "inconclusive: 10 µM [cytotoxic, partial curve]"}
{"smiles": "CCOc1cc(/C=C(\\C#N)C(=O)Nc2ccc(OC)cc2)ccc1OCc1cc(=O)n2nc(CC)sc2n1", "Potency": "inconclusive: 6.31 µM [cytotoxic, single point]"}
{"smiles": "COc1ccc(-c2nnc(SCC(=O)Nc3ccc(C)c(Cl)c3)nc2-c2ccc(OC)c(OC)c2)cc1OC", "Potency": "inconclusive: 25.1 µM [cytotoxic, single point]"}
{"smiles": "O=C(Cn1cc(SCc2ccc(Cl)cc2)c2ccccc21)N1CCCC1", "Potency": "inconclusive: 25.1 µM [cytotoxic, single point]"}
{"smiles": "CCCCNC(=O)c1cnn2c(C)c(Cc3c(C)cc(C)cc3C)c(C)nc12", "Potency": "inconclusive: 31.6 µM [cytotoxic, single point]"}
{"smiles": "CCOc1ccc(C(=O)NCCc2csc(-c3cccnc3)n2)cc1", "Potency": "inconclusive: 15.8 µM [cytotoxic, partial curve]"}
{"smiles": "COc1ccc(Cn2c(C(=O)O)c(CNCc3ccc(C)o3)c3ccc(OC)cc32)cc1", "activity change, negative = cytotoxicity": "inactive: -9.04%"}
{"smiles": "CCc1cccc(NC(=O)Cn2nc(C)c3sc4ccccc4c3c2=O)c1", "Potency": "inconclusive: 35.5 µM [cytotoxic, single point]"}
{"smiles": "CCN1C(=O)/C(=C2/C=Cc3cc(C)ccc3N2CC)N(C)C1=S", "Potency": "inconclusive: 22.4 µM [cytotoxic, single point]"}
{"smiles": "CC(/C=N/Nc1nc2ccccc2[nH]1)=C\\c1ccccc1", "Potency": "active: 7.94 µM"}
{"smiles": "CCc1ccc(C(=O)c2cn(CC(=O)Nc3ccc4c(c3)OCO4)c3ccc(Cl)cc3c2=O)cc1", "activity change, negative = cytotoxicity": "inactive: -19.7%"}
{"smiles": "O=C(NCCc1ccccc1Cl)c1cc2ccccn2n1", "Potency": "inconclusive: 12.6 µM [cytotoxic, partial curve]"}
{"smiles": "CC(=O)N1CCc2cc(Br)cc(S(=O)(=O)CCC(=O)NCc3ccc(F)cc3)c21", "activity change, negative = cytotoxicity": "inactive: -5.85%"}
{"smiles": "CCC(=O)NCCc1sc2nc(-c3ccc(OC)cc3)nn2c1C", "Potency": "inconclusive: 10 µM [cytotoxic, single point]"}
{"smiles": "CCCS(=O)(=O)Nc1cccc(-c2cn3ccsc3n2)c1", "activity change, negative = cytotoxicity": "inactive: -16.5%"}
{"smiles": "CCC1CCCCN1CCCNC(=O)c1ccc2c(c1)N(Cc1cccc(Cl)c1)C(=O)c1ccccc1S2(=O)=O", "note": "(stereo not given)", "Potency": "inconclusive: 3.98 µM [cytotoxic, partial curve]"}
{"smiles": "Cc1ccc(C(=O)Nc2ccc(Cl)cc2C(F)(F)F)c(Cl)c1", "Potency": "inconclusive: 10 µM [cytotoxic, partial curve, poor fit]"}
{"smiles": "CN(c1ccccc1)S(=O)(=O)c1nnc(NC(=O)C2CCCCC2)s1", "Potency": "inconclusive: 2.51 µM [cytotoxic, full curve, poor fit]"}
{"smiles": "Cc1nn(CCCC(=O)NCCc2ccc(Cl)cc2)c(=O)c2c1sc1ccccc12", "Potency": "inconclusive: 35.5 µM [cytotoxic, single point]"}
{"smiles": "O=C(NCCc1cccs1)c1ccc(Cn2c(SCc3ccc(F)cc3)nc3cccnc32)cc1", "Potency": "inconclusive: 6.31 µM [cytotoxic, partial curve]"}
{"smiles": "CC1CCN(c2ncnc3c2cnn3-c2ccc(F)cc2)CC1", "Potency": "inconclusive: 12.6 µM [cytotoxic, partial curve]"}
{"smiles": "COc1ccc(-c2nc3c(c(SCC(=O)Nc4ccc(C(=O)O)cc4)n2)Cc2ccccc2O3)cc1", "Potency": "inconclusive: 3.55 µM [cytotoxic, single point]"}
{"smiles": "CC(=O)c1cccc(NS(=O)(=O)c2ccc3[nH]c4c(c3c2)CCCCCC4)c1", "activity change, negative = cytotoxicity": "inactive: 18%"}
{"smiles": "COc1ccc(C(=O)c2cn(CC(=O)Nc3ccc4c(c3)OCO4)c3ccc(OC)cc3c2=O)cc1", "Potency": "inconclusive: 2.82 µM [cytotoxic, partial curve]"}
{"smiles": "Cc1cccc(OCC(=O)Nc2ccc3c(c2)N(C)C(=O)c2ccccc2S3)c1", "activity change, negative = cytotoxicity": "inactive: 13.9%"}
{"smiles": "COc1ccc(NC(=O)c2ccco2)cc1NC(=O)COc1ccccc1Cl", "activity change, negative = cytotoxicity": "inactive: -9.64%"}
{"smiles": "Nc1cc(-c2nc3ncccc3o2)ccc1Cl", "activity change, negative = cytotoxicity": "inactive: -27.7%"}
{"smiles": "Cc1ccc(/C=C/c2onc(C)c2S(=O)(=O)N2CCC(C(=O)NCc3ccc(N(C)C)cc3)CC2)cc1", "Potency": "inconclusive: 35.5 µM [cytotoxic, single point]"}
{"smiles": "O=C(CSCc1cc(=O)c2ccccc2[nH]1)Nc1cccc(C(F)(F)F)c1", "activity change, negative = cytotoxicity": "inactive: -7.62%"}
{"smiles": "CCC(C)c1ccc(OCC(=O)Nc2ccc(-c3nc4ncccc4o3)cc2)cc1", "note": "(stereo not given)", "Potency": "inconclusive: 12.6 µM [cytotoxic, single point]"}
{"smiles": "CC(Sc1nc2ccccc2n1C)C(=O)NC(c1ccccc1)c1ccccc1", "note": "(stereo not given)", "activity change, negative = cytotoxicity": "inactive: 0.255%"}
